# Source: PubChem BioAssay AID588453 (National Center for Advancing Translational Sciences (NCATS), 2011)
# Out of some 390,000 compounds screened, about 4,000 (1%) were called active. The inconclusive results got no clear call from the source; some entries with a clear call stand among them for comparison. Calls follow the shape of the dose curve; as a rule, active = well fitted inhibition curve with a large enough effect; inconclusive = small, poorly fitted or top-dose-only effect; inactive = no such curve, though single readings can be large or run the other way. Potencies of inconclusive entries are doubtful fits and often do not repeat.
# Target: Thioredoxin reductase 1, cytoplasmic (Rattus norvegicus) (UniProt O89049)
# Assay: qHTS Assay for Inhibitors of Mammalian Selenoprotein Thioredoxin Reductase 1 (TrxR1): qHTS; also: nearly all actives have a fitted effect of over 65% in size
# Settings: recombinant rTrxR1, NADPH fluorescence consumption, selenite substrate; series mostly up to 114 µM
# Method in brief: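 Rat TrxR1 (90 nM in the dispensed reagent) was pre-reduced with 400 uM NADPH for 5 min at room temperature, then incubated with compound for 15 min. After 400 uM selenite was added, NADPH fluorescence (Ex 340/Em 450 nm) was followed for 8 min.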
# Potency is read from the fitted curve at half-maximal effect; tags tell the direction and shape of the fitted curve.
# UniProt O89049, sequence (O89049 whole entry, looked up): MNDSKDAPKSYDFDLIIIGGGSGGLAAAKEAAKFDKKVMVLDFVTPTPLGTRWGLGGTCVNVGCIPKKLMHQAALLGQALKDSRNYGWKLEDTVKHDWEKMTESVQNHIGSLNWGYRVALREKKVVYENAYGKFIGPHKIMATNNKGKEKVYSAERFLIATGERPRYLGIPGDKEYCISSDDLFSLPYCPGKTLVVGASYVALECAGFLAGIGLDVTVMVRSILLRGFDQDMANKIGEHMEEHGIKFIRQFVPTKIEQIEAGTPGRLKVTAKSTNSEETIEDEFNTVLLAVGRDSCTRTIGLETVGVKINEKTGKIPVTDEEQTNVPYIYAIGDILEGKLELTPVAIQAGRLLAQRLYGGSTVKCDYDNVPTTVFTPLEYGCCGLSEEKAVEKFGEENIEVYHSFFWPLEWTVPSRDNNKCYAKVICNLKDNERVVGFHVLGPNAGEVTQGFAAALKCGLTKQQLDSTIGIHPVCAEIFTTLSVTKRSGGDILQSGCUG
row,SMILES,Potency
1,C=CCN(c1ccccc1)S(=O)(=O)c1cccc(C(=O)O)c1,"inconclusive: 70.8 µM [inhibitor, single point]"
2,CC(C)[C@@H]1NC(=O)c2cc([N+](=O)[O-])cc(I)c2NCCC[C@@H](C(N)=O)NC(=O)[C@H](CO)NC1=O,"inconclusive: 0.141 µM [inhibitor, full curve, poor fit]"
3,Cc1ccc(-n2c(=S)[nH]c3c(oc4ccccc43)c2=O)cc1C,"inconclusive: 70.8 µM [inhibitor, partial curve, poor fit]"
4,COc1ccc(C2=CC(c3ccco3)n3ncnc3N2)cc1 (stereo not given),"inconclusive: 56.2 µM [inhibitor, partial curve, poor fit]"
5,COC(=O)N1CCc2c(sc(NC(=O)C3=COCCO3)c2C#N)C1,inactive
6,CNC(=O)CSc1nnc(NC(=O)C2CC(=O)N(c3ccccc3OC)C2)s1 (stereo not given),inactive
7,COc1ccc(/C(O)=C2/C(=O)C(=O)N(CCN3CCOCC3)C2c2ccccn2)cc1 (stereo not given),active: 50.1 µM
8,COc1ccc(OC)c(CCNC(=O)CSc2ccsc2[N+](=O)[O-])c1,"inconclusive: 89.1 µM [inhibitor, single point]"
9,CCCOC(=O)c1ccc(NC(=O)c2nc3nc(C)cc(C)n3n2)cc1,inactive
10,Cc1ccc(C)n1NC(=O)c1ccco1,"inconclusive: 44.7 µM [inhibitor, partial curve, poor fit]"
11,O=C(Cn1ncc(Cl)c(Cl)c1=O)c1ccc(Cl)cc1,inactive
12,O=S(=O)(NCc1ccco1)c1ccc2c(c1)Cc1ccccc1-2,"inconclusive: 12.6 µM [inhibitor, partial curve]"
13,COc1ccc(-c2c(C#Cc3ccc(N(C)C)cc3)c3ccccc3n2C)cc1,inactive
14,Cc1nc2ccccc2nc1SCC(=O)c1ccccc1,"inconclusive: 89.1 µM [inhibitor, single point]"
15,CN(CCc1ccccc1)C1CCCN(S(=O)(=O)CC(F)(F)F)C1 (stereo not given),"inconclusive: 70.8 µM [inhibitor, partial curve]"
16,CN(Cc1ccccn1)C(=O)CC1C(=O)NCCN1Cc1ccc(F)cc1Cl (stereo not given),"inconclusive: 44.7 µM [inhibitor, partial curve]"
17,COC(=O)Cc1c(C)c2ccc3c(c2oc1=O)CN(Cc1ccc(C)cc1)CO3,active: 35.5 µM
18,Cc1cc(C)nc(SCC(=O)NCc2ccco2)n1,"inconclusive: 70.8 µM [inhibitor, single point]"
19,Cc1c(C(=O)O)oc2ccc(S(=O)(=O)NCc3ccc(F)cc3)cc12,inactive
20,COc1ccc(NC(=O)COc2cccc3c2OC(C)(C)C3)cc1OC,inactive
21,CCC(CO)Oc1cc(NCc2cccc(F)c2)c2ncn(C(C)C)c2c1 (stereo not given),"inconclusive: 89.1 µM [inhibitor, single point]"
22,O=[N+]([O-])c1cc2c(cc1/C=N/n1c(-c3ccccn3)n[nH]c1=S)OCO2,"inconclusive: 50.1 µM [inhibitor, partial curve]"
23,COc1cccc(/C=C/c2nc(C#N)c(N3CCCCCC3)o2)c1,inactive

row,SMILES,Potency
1,Cc1ccc(C2=NN(C(=O)CN3CCN(C4CCS(=O)(=O)C4)CC3)C(c3ccco3)C2)cc1 (stereo not given),"inconclusive: 89.1 µM [inhibitor, single point]"
2,COc1ccccc1/C=C1\C=Cc2ccccc21,active: 22.4 µM
3,COc1cc(C2/C(=C(\O)c3ccc4c(c3)OCCO4)C(=O)C(=O)N2Cc2ccco2)cc(OC)c1OC (stereo not given),"inconclusive: 70.8 µM [inhibitor, single point]"
4,CC1=CC(=C(C#N)C#N)C=C(C)N1CCN1CCNCC1,"inconclusive: 15.8 µM [inhibitor, partial curve]"
5,COC1=C/C(=C/c2c(N)n3nc(CC(=O)N4CCCCC4)sc3nc2=O)C=CC1=O,"inconclusive: 1.58 µM [inhibitor, full curve, poor fit]"
6,Cc1ccc(-c2ccnc(=S)[nH]2)cc1,"inconclusive: 2.82 µM [inhibitor, partial curve]"
7,CCOC(=O)c1ccc(CN(Cc2ccc(Cl)cc2Cl)S(=O)(=O)c2ccc(F)c(C)c2)cc1,inactive
8,C/C(Cn1cnc([N+](=O)[O-])n1)=N\NC(=O)c1ccncc1,"inconclusive: 56.2 µM [inhibitor, single point]"
9,CC1CC(=O)C(C(C2=C(O)CC(C)CC2=O)c2ccccc2)=C(O)C1 (stereo not given),"inconclusive: 25.1 µM [inhibitor, partial curve, poor fit]"
10,Cc1sc(NC(=O)c2ccco2)c(C(c2cccnc2)N2CCC(C)CC2)c1C (stereo not given),"inconclusive: 7.94 µM [inhibitor, full curve, poor fit]"
11,COc1ccc(/C=C\C(=O)CC(O)(c2ccccc2)C(F)(F)F)cc1 (stereo not given),inactive
12,COc1cc2[nH]c(=S)nc(NCC3CCCO3)c2cc1OC (stereo not given),"inconclusive: 70.8 µM [inhibitor, single point]"
13,O=c1c2cn[nH]c2[nH]c(=S)n1-c1ccccc1,"inconclusive: 22.4 µM [inhibitor, partial curve, poor fit]"
14,O=C(CCl)N(c1ccccc1)c1ccccc1,"inconclusive: 14.1 µM [inhibitor, partial curve, poor fit]"
15,C=CCOC(=O)C1=C(C)NC(SCC(=O)N(CC)CC)=C(C#N)C1c1ccco1 (stereo not given),inactive
16,N#Cc1ccc(NC(=S)Nc2ccccc2)cc1,"inconclusive: 50.1 µM [inhibitor, partial curve, poor fit]"
17,CCCCCCCCOc1ccc(C(=O)O)cc1,inactive
18,Cc1cc(SCC(=O)c2ccc(O)c(O)c2)nc2ccccc12,"inconclusive: 22.4 µM [inhibitor, single point]"
19,S=C(NC1CCCC1)N1CCN(c2ccc(Cl)cc2)CC1,"inconclusive: 89.1 µM [inhibitor, single point]"
20,S=C(Nc1ccccc1)Nc1ccc(OCc2ccc(Cl)cc2Cl)cc1,inactive
21,O=C1Nc2ccc(S(=O)(=O)NCc3ccccn3)c3cccc1c23,"inconclusive: 70.8 µM [inhibitor, single point]"
22,O=C(N/N=C/C(Cl)=C/c1ccc([N+](=O)[O-])cc1)C(=O)Nc1ccc(C(=O)O)cc1,"inconclusive: 50.1 µM [inhibitor, partial curve]"
